Reference: patent US20160319036A1 (Hoffmann-La Roche, published 2016)

Key:
[1] = target: T1, FAP on FAP-expressing fibroblast cell line GM05389 (human, UniProt Q12884 1-760); assay: FACS on FAP-expressing GM05389 fibroblasts, detection with Dylight649 anti-human IgG Fc F(ab')2
T1 construct: whole, on cells; also called FAP positive GM05389 fibroblasts
T1 sequence (looked up): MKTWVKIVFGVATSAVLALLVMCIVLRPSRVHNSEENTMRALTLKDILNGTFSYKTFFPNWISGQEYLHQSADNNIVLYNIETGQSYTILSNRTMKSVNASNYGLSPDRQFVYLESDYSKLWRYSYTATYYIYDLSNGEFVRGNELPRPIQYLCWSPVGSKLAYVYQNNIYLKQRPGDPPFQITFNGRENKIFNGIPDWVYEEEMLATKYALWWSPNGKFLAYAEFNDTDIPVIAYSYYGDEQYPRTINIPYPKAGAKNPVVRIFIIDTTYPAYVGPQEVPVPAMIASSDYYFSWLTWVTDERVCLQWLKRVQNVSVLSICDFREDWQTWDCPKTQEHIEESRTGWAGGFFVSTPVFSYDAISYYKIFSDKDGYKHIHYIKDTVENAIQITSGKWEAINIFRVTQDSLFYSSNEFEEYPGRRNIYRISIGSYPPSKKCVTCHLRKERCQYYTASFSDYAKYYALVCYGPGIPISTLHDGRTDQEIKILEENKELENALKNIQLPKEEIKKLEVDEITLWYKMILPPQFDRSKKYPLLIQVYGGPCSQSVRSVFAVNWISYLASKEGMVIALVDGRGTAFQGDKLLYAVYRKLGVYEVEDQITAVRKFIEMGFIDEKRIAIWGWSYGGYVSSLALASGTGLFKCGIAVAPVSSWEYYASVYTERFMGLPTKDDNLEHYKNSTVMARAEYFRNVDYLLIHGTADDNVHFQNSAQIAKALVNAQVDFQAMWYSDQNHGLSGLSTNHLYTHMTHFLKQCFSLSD
Description: (§1) As control another tetravalent bispecific DR5/FAP antibody construct containing the same binders was used. Briefly, 0.2 Mio cells per well in a 96 well round bottom plate were incubated with 40 μl of the indicated concentration of the constructs for 30 min at 4° C. Unbound construct was removed by washing the cells with PBS containing 0.1% BSA. Bound constructs were detected with Dylight649-conjugated AffiniPure F(ab′)2 Fragment goat anti-human IgG Fcg Fragment Specific secondary antibody (Jackson ImmunoResearch #109-496-098; working solution 1:50 in PBS, 0.1% BSA). After 30 min incubation at 4° C. unbound antibody was removed by washing and cells were fixed using 1% PFA. Cells were analyzed using BD FACS Cantoll (Software BD DIVA). Binding of bispecific modified common light chain DR5/FAP-kappa-lambda antibody GA803_G25_H14D_001 was tested on DR5 positive MDA-MB 231 cells. The construct binds in a concentration dependent manner to MDA-MB 231 cells (FIG. 7).
Binding of bispecific modified common light chain DR5/FAP-kappa-lambda antibody GA803_G25_H14D_001 was tested on FAP positive GM05389 fibroblasts. The construct binds in a concentration dependent manner to GM05389 cells (FIG. 8).

[2] = target: T2, DR5 on DR5-expressing MDA-MB 231 tumor cells (human, UniProt O14763 56-440); assay: FACS on DR5-expressing MDA-MB 231 cells, detection with Dylight649 anti-human IgG Fc F(ab')2
T2 construct: whole, on cells; also called DR5 positive MDA-MB 231 cells
Description: as §1

B1: bispecific modified common light chain DR5/FAP-kappa-lambda antibody GA803_G25_H14D_001 (bispecific antibody, human IgG1, lambda)
heavy: DIQMTQSPSSLSASVGDRVTITCSASQGIRNYLNWYQQKPGKAPKLLIYYTSSLHSGVPSRFSGSGSGTDFTLTISSLQPEDFATYYCQQYSKLPWTFGQGTKVEIKSS[human IgG1 constant region not given here]
light 1: [about 100 residues not given here]GPYGRYAALDYWGQGTLVTVSSASVAAPSVFIFPPSDEQLKSGTASVVCLLNNFYPREAKVQWKVDNALQSGNSQESVTEQDSKDSTYSLSSTLTLSKADYEKHKVYACEVTHQGLSSPVTKSFNRGEC
light 2: [about 100 residues not given here]SVVYSYDPGFDYWGQGTLVTVSGQPKAAPSVTLFPPSSEELQANKATLVCLISDFYPGAVTVAWKADSSPVKAGVETTTPSKQSNNKYAASSYLSLTPEQWKSHRSYSCQVTHEGSTVEKTVAPTECS
notes: 1+1 bispecific with human IgG1 constant domains: two identical VL-CH1-CH2-CH3 heavy chains, one VH1-CLκ chain (DR5 arm) and one VH2-CLλ chain (FAP arm); also called <FAP(3C6)[CLλ]-DR5(2A11)[CLκ]>; 3C6/2A11
[1]
  binding result: binds
[2]
  binding result: binds
